Results taken from the supplement of paper PMC8728848.
Some of the results follow.

Assays:
Experiment in all cases: glycan array binding signal (z-score within array); higher = stronger binding
Settings in all cases: glycan notation: IUPAC condensed, linker removed
[1] = target: GlcNAc(b1-2)[GlcNAc(b1-4)]Man(a1-3)[GlcNAc(b1-4)][GlcNAc(b1-2)[GlcNAc(b1-6)]Man(a1-6)]Man(b1-4)GlcNAc(b1-4)GlcNAc
How it was run: (§1)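 Negative Z-scores can be read as non-binding. The Z-score is calculated within each array and then averaged across arrays of one protein sequence at different concentrations or buffers and across linkers. Arrays, 3228 in all, were curated from the Consortium for Functional Glycomics database and kept only where the protein sequence was available.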

[2] = target: GlcNAc(b1-2)[GlcNAc(b1-4)]Man(a1-3)[GlcNAc(b1-4)][GlcNAc(b1-2)[GlcNAc(b1-6)]Man(a1-6)]Man(b1-4)GlcNAc(b1-4)[Fuc(a1-6)]GlcNAc
How it was run: as §1

[3] = target: GlcNAc(b1-2)[GlcNAc(b1-6)]Man(a1-6)[GlcNAc(b1-2)Man(a1-3)]Man(b1-4)GlcNAc(b1-4)GlcNAc
How it was run: as §1

[4] = target: GlcNAc(b1-2)[GlcNAc(b1-6)]Man(a1-6)[GlcNAc(b1-2)Man(a1-3)]Man(b1-4)GlcNAc(b1-4)[Fuc(a1-6)]GlcNAc
How it was run: as §1

[5] = target: GlcNAc(b1-2)[GlcNAc(b1-6)]Man(a1-6)[GlcNAc(b1-4)][GlcNAc(b1-2)Man(a1-3)]Man(b1-4)GlcNAc(b1-4)GlcNAc
How it was run: as §1

GlcNAc(b1-3)Fuc = target: GlcNAc(b1-3)Fuc
How it was run: as §1

GlcNAc(b1-3)Gal = target: GlcNAc(b1-3)Gal
How it was run: as §1

[6] = target: GlcNAc(b1-3)Gal(b1-3)GalNAc
How it was run: as §1

GlcNAc(b1-3)Gal(b1-4)Glc = target: GlcNAc(b1-3)Gal(b1-4)Glc
How it was run: as §1

[7] = target: GlcNAc(b1-3)Gal(b1-4)GlcNAc
How it was run: as §1

[8] = target: GlcNAc(b1-3)Gal(b1-4)GlcNAc(b1-2)Man(a1-3)[GlcNAc(b1-3)Gal(b1-4)GlcNAc(b1-2)Man(a1-6)]Man(b1-4)GlcNAc(b1-4)GlcNAc
How it was run: as §1

[9] = target: GlcNAc(b1-3)Gal(b1-4)GlcNAc(b1-2)Man(a1-3)[GlcNAc(b1-3)Gal(b1-4)GlcNAc(b1-2)Man(a1-6)]Man(b1-4)GlcNAc(b1-4)[Fuc(a1-6)]GlcNAc
How it was run: as §1

[10] = target: GlcNAc(b1-3)Gal(b1-4)GlcNAc(b1-2)[GlcNAc(b1-3)Gal(b1-4)GlcNAc(b1-6)]Man(a1-6)[GlcNAc(b1-3)Gal(b1-4)GlcNAc(b1-2)Man(a1-3)]Man(b1-4)GlcNAc(b1-4)GlcNAc
How it was run: as §1

[11] = target: GlcNAc(b1-3)Gal(b1-4)GlcNAc(b1-3)Gal(b1-4)GlcNAc
How it was run: as §1

[12] = target: GlcNAc(b1-3)Gal(b1-4)GlcNAc(b1-3)Gal(b1-4)GlcNAc(b1-2)Man(a1-3)[GlcNAc(b1-3)Gal(b1-4)GlcNAc(b1-3)Gal(b1-4)GlcNAc(b1-2)Man(a1-6)]Man(b1-4)GlcNAc(b1-4)GlcNAc
How it was run: as §1

[13] = target: GlcNAc(b1-3)Gal(b1-4)GlcNAc(b1-3)Gal(b1-4)GlcNAc(b1-2)Man(a1-3)[GlcNAc(b1-3)Gal(b1-4)GlcNAc(b1-3)Gal(b1-4)GlcNAc(b1-2)Man(a1-6)]Man(b1-4)GlcNAc(b1-4)[Fuc(a1-6)]GlcNAc
How it was run: as §1

[14] = target: GlcNAc(b1-3)Gal(b1-4)GlcNAc(b1-3)Gal(b1-4)GlcNAc(b1-2)[GlcNAc(b1-3)Gal(b1-4)GlcNAc(b1-3)Gal(b1-4)GlcNAc(b1-6)]Man(a1-6)[GlcNAc(b1-3)Gal(b1-4)GlcNAc(b1-3)Gal(b1-4)GlcNAc(b1-2)Man(a1-3)]Man(b1-4)GlcNAc(b1-4)[Fuc(a1-6)]GlcNAc
How it was run: as §1

[15] = target: GlcNAc(b1-3)Gal(b1-4)GlcNAc(b1-3)Gal(b1-4)GlcNAc(b1-3)Gal(b1-4)GlcNAc(b1-2)Man(a1-3)[GlcNAc(b1-3)Gal(b1-4)GlcNAc(b1-3)Gal(b1-4)GlcNAc(b1-3)Gal(b1-4)GlcNAc(b1-2)Man(a1-6)]Man(b1-4)GlcNAc(b1-4)GlcNAc
How it was run: as §1

[16] = target: GlcNAc(b1-3)Gal(b1-4)GlcNAc(b1-3)Gal(b1-4)GlcNAc(b1-3)Gal(b1-4)GlcNAc(b1-2)Man(a1-3)[GlcNAc(b1-3)Gal(b1-4)GlcNAc(b1-3)Gal(b1-4)GlcNAc(b1-3)Gal(b1-4)GlcNAc(b1-2)Man(a1-6)]Man(b1-4)GlcNAc(b1-4)[Fuc(a1-6)]GlcNAc
How it was run: as §1

[17] = target: GlcNAc(b1-3)Gal(b1-4)GlcNAc(b1-3)Gal(b1-4)GlcNAc(b1-3)Gal(b1-4)GlcNAc(b1-2)[GlcNAc(b1-3)Gal(b1-4)GlcNAc(b1-3)Gal(b1-4)GlcNAc(b1-3)Gal(b1-4)GlcNAc(b1-6)]Man(a1-6)[GlcNAc(b1-3)Gal(b1-4)GlcNAc(b1-3)Gal(b1-4)GlcNAc(b1-3)Gal(b1-4)GlcNAc(b1-2)Man(a1-3)]Man(b1-4)GlcNAc(b1-4)[Fuc(a1-6)]GlcNAc
How it was run: as §1

[18] = target: GlcNAc(b1-3)Gal(b1-4)GlcNAc(b1-3)Gal(b1-4)GlcNAc(b1-3)Gal(b1-4)GlcNAc(b1-3)Gal(b1-4)GlcNAc(b1-2)Man(a1-3)[GlcNAc(b1-3)Gal(b1-4)GlcNAc(b1-3)Gal(b1-4)GlcNAc(b1-3)Gal(b1-4)GlcNAc(b1-3)Gal(b1-4)GlcNAc(b1-2)Man(a1-6)]Man(b1-4)GlcNAc(b1-4)GlcNAc
How it was run: as §1

[19] = target: GlcNAc(b1-3)Gal(b1-4)GlcNAc(b1-3)Gal(b1-4)GlcNAc(b1-3)Gal(b1-4)GlcNAc(b1-3)Gal(b1-4)GlcNAc(b1-2)Man(a1-3)[GlcNAc(b1-3)Gal(b1-4)GlcNAc(b1-3)Gal(b1-4)GlcNAc(b1-3)Gal(b1-4)GlcNAc(b1-3)Gal(b1-4)GlcNAc(b1-2)Man(a1-6)]Man(b1-4)GlcNAc(b1-4)[Fuc(a1-6)]GlcNAc
How it was run: as §1

[20] = target: GlcNAc(b1-3)Gal(b1-4)GlcNAc(b1-3)Gal(b1-4)GlcNAc(b1-3)Gal(b1-4)GlcNAc(b1-3)Gal(b1-4)GlcNAc(b1-2)[GlcNAc(b1-3)Gal(b1-4)GlcNAc(b1-3)Gal(b1-4)GlcNAc(b1-3)Gal(b1-4)GlcNAc(b1-3)Gal(b1-4)GlcNAc(b1-6)]Man(a1-6)[GlcNAc(b1-3)Gal(b1-4)GlcNAc(b1-3)Gal(b1-4)GlcNAc(b1-3)Gal(b1-4)GlcNAc(b1-3)Gal(b1-4)GlcNAc(b1-2)Man(a1-3)]Man(b1-4)GlcNAc(b1-4)[Fuc(a1-6)]GlcNAc
How it was run: as §1

[21] = target: GlcNAc(b1-3)Gal(b1-4)GlcNAc(b1-3)Gal(b1-4)GlcNAc(b1-3)GalNAc
How it was run: as §1

[22] = target: GlcNAc(b1-3)Gal(b1-4)GlcNAc(b1-3)GalNAc
How it was run: as §1

[23] = target: GlcNAc(b1-3)Gal(b1-4)GlcNAc(b1-3)[GlcNAc(b1-3)Gal(b1-4)GlcNAc(b1-3)]GalNAc
How it was run: as §1

[24] = target: GlcNAc(b1-3)Gal(b1-4)GlcNAc(b1-6)[Gal(b1-3)]GalNAc
How it was run: as §1

[25] = target: GlcNAc(b1-3)Gal(b1-4)GlcNAc(b1-6)[GlcNAc(b1-3)Gal(b1-3)]GalNAc
How it was run: as §1

[26] = target: GlcNAc(b1-3)Gal(b1-4)GlcNAc(b1-6)[GlcNAc(b1-3)]Gal(b1-4)GlcNAc
How it was run: as §1

GlcNAc(b1-3)GalNAc = target: GlcNAc(b1-3)GalNAc
How it was run: as §1

GlcNAc(b1-3)Man = target: GlcNAc(b1-3)Man
How it was run: as §1

[27] = target: GlcNAc(b1-3)[GlcNAc(b1-4)][GlcNAc(b1-6)]GlcNAc
How it was run: as §1

[28] = target: GlcNAc(b1-3)[GlcNAc(b1-6)]Gal(b1-4)GlcNAc
How it was run: as §1

[29] = target: GlcNAc(b1-3)[GlcNAc(b1-6)]GalNAc
How it was run: as §1

[30] = target: GlcNAc(b1-4)Gal(b1-4)GlcNAc
How it was run: as §1

GlcNAc(b1-4)GlcNAc = target: GlcNAc(b1-4)GlcNAc
How it was run: as §1

[31] = target: GlcNAc(b1-4)GlcNAc(b1-4)GlcNAc
How it was run: as §1

[32] = target: GlcNAc(b1-4)GlcNAc(b1-4)GlcNAc(b1-4)GlcNAc(b1-4)GlcNAc
How it was run: as §1

B1: PX9937J-pdi-523-26-523 (Parabacteroides distasonis) (protein)
chain: EPVSSISDANYWKSPDLFKAFNIGLHGLLRSQSSYNIFVLGEPRSDIYGDQPFGGEATQGVERFSYNTINAEFTGISNFANFYTTLNQINLMIRRTNETDLLGEAEKNYYLGQAYGLRAYIYFHLLRSWGDVIITTEPTLGSELDISHLDKAASPASEVMDLIKKDIDASEKAFGGDYSYKQGKCYWSKPATLMLKGEVYLWSGRQMGGGTGDYTVAKTALQDLQQNGNLKLQEKFTDVFSFNNKENSEMIFALHSGKEDDFMMWRDYNWRNNMVPQREYMAGYCDETGTPFLEIPGYNLQGLMRYQVKKDHYLKSFREGDTRLKGTLKAVYKKHEDGTLEYIAPIQYKFQGTTLEGSNERSWYDDYPIYRYADALLLLAEAKALLGEDPSTEINAVRERAYGSEYFNAHKNEVAYPNDKGSFYNDNPFEAGDENVMEAILKERLREFFFEGKRWYDLRRFGKDYVLKYTTAQESRLLWPINEGALTNNPALKQTPGY
[1]
  glycan array binding signal (z-score): -0.416
[2]
  glycan array binding signal (z-score): -0.488
[3]
  glycan array binding signal (z-score): 0.524
[4]
  glycan array binding signal (z-score): 0.003
[5]
  glycan array binding signal (z-score): 0.018
GlcNAc(b1-3)Fuc
  glycan array binding signal (z-score): -0.027
GlcNAc(b1-3)Gal
  glycan array binding signal (z-score): -0.322
[6]
  glycan array binding signal (z-score): 0.084
GlcNAc(b1-3)Gal(b1-4)Glc
  glycan array binding signal (z-score): -0.244
[7]
  glycan array binding signal (z-score): -0.088
[8]
  glycan array binding signal (z-score): -0.352
[9]
  glycan array binding signal (z-score): 0.347
[10]
  glycan array binding signal (z-score): 0.594
[11]
  glycan array binding signal (z-score): -0.568
[12]
  glycan array binding signal (z-score): 0.128
[13]
  glycan array binding signal (z-score): 0.395
[14]
  glycan array binding signal (z-score): 0.593
[15]
  glycan array binding signal (z-score): -0.29
[16]
  glycan array binding signal (z-score): -0.196
[17]
  glycan array binding signal (z-score): -0.387
[18]
  glycan array binding signal (z-score): 1.88
[19]
  glycan array binding signal (z-score): -0.121
[20]
  glycan array binding signal (z-score): 4.67
[21]
  glycan array binding signal (z-score): -0.256
[22]
  glycan array binding signal (z-score): -0.404
[23]
  glycan array binding signal (z-score): 0.136
[24]
  glycan array binding signal (z-score): -0.195
[25]
  glycan array binding signal (z-score): 0.161
[26]
  glycan array binding signal (z-score): -0.16
GlcNAc(b1-3)GalNAc
  glycan array binding signal (z-score): -0.622
GlcNAc(b1-3)Man
  glycan array binding signal (z-score): -0.116
[27]
  glycan array binding signal (z-score): -0.736
[28]
  glycan array binding signal (z-score): -0.532
[29]
  glycan array binding signal (z-score): -0.1
[30]
  glycan array binding signal (z-score): -0.6
GlcNAc(b1-4)GlcNAc
  glycan array binding signal (z-score): -0.151
[31]
  glycan array binding signal (z-score): -0.465
[32]
  glycan array binding signal (z-score): -0.657
